# Assay results taken from the supplement of paper PMC9174493.
# The list shows a part of the results. Single values of this set are uncertain. Values with irradiation are relative to irradiated vehicle.
# Test system: A549-Dual
# Test: NF-kB reporter (SEAP) activity, viability-corrected, relative to vehicle (fold change vs vehicle); higher = more activation of STING-IRF / NF-kB immune response reporter
# Settings: 10 µM; irradiation: 8 Gy/4 fr
# 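Also: viability correction based on the alamar blue assay, with concentrations leaving 10% survival or less dropped.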
row,Structure (SMILES),NF-kB reporter
1,CCC1OC(=O)C(C)C(OC2CC(C)(OC)C(O)C(C)O2)C(C)C(OC2OC(C)CC(N(C)C)C2O)C(C)(O)CC(C)C(=O)C(C)C(O)C1(C)O.N#CS (configuration not stated) [Erythromycin thiocyanate],0.698
2,Cl.OC(c1cc(C(F)(F)F)nc2c(C(F)(F)F)cccc12)C1CCCCN1 (configuration not stated) [Mefloquine HCl],0.55
3,OCC1OC(OC2(CO)OC(CO)C(O)C2O)C(O)C(O)C1O (configuration not stated) [Inulin],0.901
4,CC1c2cccc(O)c2C(=O)C2=C(O)C3(O)C(=O)C(C(N)=O)=C(O)C(N(C)C)C3C(O)C21 (configuration not stated) [Doxycycline],0.535
5,Oc1c(I)cc(Cl)c2cccnc12 [Clioquinol],0.686
6,CCCCCC(O)/C=C/C1C(O)CC(O)C1C/C=C\CCCC(=O)O.NC(CO)(CO)CO (configuration not stated) [Dinoprost tromethamine],0.956
7,COc1ccccc1O [Guaiacol],1.02
8,CS(=O)(=O)CCNCc1ccc(-c2ccc3ncnc(Nc4ccc(OCc5cccc(F)c5)c(Cl)c4)c3c2)o1 [Lapatinib],0.743
9,CC(=O)Oc1ccc(C(=C2CCCCC2)c2ccc(OC(C)=O)cc2)cc1 [Cyclofenil],0.767
10,COc1cc(C=O)ccc1O [Vanillin],0.758
11,Cc1ccsc1C(=CCCN1CCCC(C(=O)O)C1)c1sccc1C (configuration not stated) [Tiagabine],0.773
12,COC(=O)NC(C(=O)NC(Cc1ccccc1)C(O)CN(Cc1ccc(-c2ccccn2)cc1)NC(=O)C(NC(=O)OC)C(C)(C)C)C(C)(C)C (configuration not stated) [Atazanavir],0.772
13,CCOC(=O)C(C)(C)Oc1ccc(Cl)cc1 [Clofibrate],0.784
14,Cl.Cl.OCCOCCN1CCN(C(c2ccccc2)c2ccc(Cl)cc2)CC1 (configuration not stated) [Hydroxyzine 2HCl],0.848
15,CC1(C)SC2C(NC(=O)C(N)c3ccccc3)C(=O)N2C1C(=O)[O-].[Na+] (configuration not stated) [Ampicillin sodium],1.04
16,Cn1c(=O)c2c(ncn2CC(O)CO)n(C)c1=O (configuration not stated) [Dyphylline],1.02
17,CCn1cc(C(=O)O)c(=O)c2ccc(C)nc21 [Nalidixic acid],0.809
18,Cl.NC(CO)C(=O)NNCc1ccc(O)c(O)c1O (configuration not stated) [Benserazide HCl],0.759
19,CCCCCCCCCCCCCC(=O)O [Myristic Acid],1.01
20,O=C([O-])CCSCC1OC2OC3C(CSCCC(=O)[O-])OC(OC4C(CSCCC(=O)[O-])OC(OC5C(CSCCC(=O)[O-])OC(OC6C(CSCCC(=O)[O-])OC(OC7C(CSCCC(=O)[O-])OC(OC8C(CSCCC(=O)[O-])OC(OC9C(CSCCC(=O)[O-])OC(OC1C(O)C2O)C(O)C9O)C(O)C8O)C(O)C7O)C(O)C6O)C(O)C5O)C(O)C4O)C(O)C3O.[Na+].[Na+].[Na+].[Na+].[Na+].[Na+].[Na+].[Na+] (configuration not stated) [Sugammadex (sodium)],0.378
21,OCC1OC(OC2OC=CC3C(O)C4OC4(CO)C23)C(O)C(O)C1O (configuration not stated) [Catalpol],1.14
22,C#CC1(O)CCC2C3CCC4=Cc5oncc5CC4(C)C3CCC21C (configuration not stated) [Danazol],0.696
23,CC(=O)O.N=C(N)N/N=C/c1c(Cl)cccc1Cl [Guanabenz Acetate],0.794
24,COS(=O)(=O)[O-].COc1cc(N)cn[n+]1-c1ccccc1 [Amezinium (methylsulfate)],0.498
25,CC(C)NNC(=O)c1ccncc1 [Iproniazid],0.707
26,CC(C)(Oc1ccc(CCNC(=O)c2ccc(Cl)cc2)cc1)C(=O)O [Bezafibrate],0.96
27,NC(=O)NC1NC(=O)NC1=O (configuration not stated) [Allantoin],0.745
